Assay results as given in ChEMBL document CHEMBL4888484, “Replenishing the malaria drug discovery pipeline: Screening and hit evaluation of the MMV Hit Generation Library 1 (HGL1) against asexual blood stage Plasmodium falciparum ,using a nano luciferase reporter read-out” (2022).
About 540 (0.36%) of roughly 150,000 compounds showed an effect of 50% or more. Some of the results follow.

Test system: Plasmodium falciparum
Experiment: Primary screen in NF54 nanoGlo assay, in single point, at 2uM, 72h; a lower Z score goes with more inhibition
Assay type: functional, Erythrocyte
Conditions: timepoint 72 hour

Row | Compound | % Inhibition [%] | Z score
1 | COc1cccc(CC(=O)Nc2ccc3c(c2)CN(Cc2ccccc2F)C(=O)[C@H](C)O3)c1 | 6 | -0.7
2 | Cc1nc(Oc2ccc(-n3cccn3)cc2)ccc1C#N | -12 | 1.45
3 | CCc1ccc(NC(=O)Cc2c(C)nc3nc(-c4ccccc4C)nn3c2C)cc1 | 34 | -4.53
4 | CCC(CC)C(=O)Nc1cc(C2CC2)nn1-c1nc(-c2ccccc2)cc(=O)[nH]1 | 69 | -9.47
5 | CCN1CCC[C@H](C(=O)NCc2cnc3c(c2)CCC3)C1 | 0 | 0.03
6 | COc1ccc2occ(C(=O)N3C[C@@H]4[C@@H](CF)[C@@H]4C3)c2c1 | -6 | 0.79
7 | Cc1ncoc1C(=O)N1CCC([C@]2(CCC(C)C)NC(=O)N(Cc3ccccn3)C2=O)CC1 | -7 | 0.86
8 | COc1ccc(CC(=O)NCCOc2ccc(-c3ccc(OC)cc3)nn2)cc1 | -4 | 0.78
9 | CC[C@H](C)[C@H](NC(=O)c1ccc(Br)c(F)c1)C(=O)O | 36 | -5.2
10 | COc1ccc2cc(-c3n[nH]cc3CN(C)CC3CCOCC3)ccc2c1 | 5 | -0.74
11 | Cc1cc(C(=O)N(C)c2cccc3ncccc23)n(C)n1 | -18 | 3.13
12 | CC(C)C[C@]1(CO)CCCN1C(=O)c1ncc(F)cc1F | 0 | -0.06
13 | CCCn1nc(CC(N)=O)nc1C1CCN(Cc2ccco2)CC1 | -2 | 0.17
14 | CCn1ccc(C(=O)N2CCCCN(C)C(=O)[C@H](C)NC(=O)COc3cc(ccc3OC)CCC(=O)NCCC2)cc1=O | -10 | 1.87
15 | CCC(CC)C(=O)N(Cc1cc(NC(=O)C(C)C)ccc1N(C)C)[C@@H](C)C(C)C | 8 | -1.02
16 | CC1(C)CC(=O)C2(CC(=O)N3CCc4ccccc4[C@@H]32)C(=O)C1 | -4 | 0.51
17 | O=C(CC(F)(F)F)NC(c1ccc(F)cc1)[C@H]1C[C@@H](O)C1 (some centres undefined) | -5 | 0.91
18 | CCn1nc(C)c(CNCc2c(C)nc3ccccn23)c1C | -7 | 0.91
19 | O=C(Nc1ccc2c(c1)OCCCO2)N1CCC[C@H]1c1cccs1 | 0 | 0
20 | c1nc(N2CCCC2)cc(N2CCC(c3noc(C4CC4)n3)CC2)n1 | -18 | 1.86
21 | CCOc1ccc(C(O)(C2CCCCC2)C(CN2CCOCC2)c2ccc(Cl)cc2)cc1 (centres undefined) | 2 | -0.29

Row | Compound | % Inhibition [%] | Z score
22 | COC1(OC)CC2(CN(Cc3cccc4cnccc34)[C@H]2C(C)C)C1 | -5 | 0.74
23 | Cc1ccc2c(c1)C(=O)NC1(CCN(C(=O)c3ccc(F)c(Cl)c3)CC1)N2C | 6 | -0.79
24 | CCN(CC)C(=O)[C@@H]1C[C@H](NC(=O)c2cccc(OC(F)F)c2)CN1C | -6 | 0.71
25 | Cc1noc(C)c1S(=O)(=O)N1CC[C@@H]2COCCN(Cc3ccccc3)[C@@H]2C1 | -11 | 1.44
26 | CCN1CCCCC1C(=O)N[C@H]1[C@@H]2COC[C@@H]21 (some centres undefined) | -6 | 1.03
27 | CC1(C)CCN(C(=O)NCCc2cnc(C3CC3)nc2)CC(C)(C)C1 | -6 | 0.89
28 | Cn1c([C@@H]2CCCN2C(=O)c2ccco2)nc2ccccc21 | -1 | 0.14
29 | Cn1ccnc1C(=O)NCc1nc2ccccc2[nH]1 | -1 | 0.26
30 | CCc1nnc(-c2nnc(NCc3nc4ccccc4n3C)c3ccccc23)o1 | 12 | -1.43
31 | CCc1nc(C)c(NC(=O)NCc2ccccn2)s1 | 1 | -0.09
32 | Cc1ccc(CC[C@H](C)NC(=O)NCc2ncnn2C(C)(C)C)o1 | -10 | 0.91
33 | CC(=O)c1c(F)cc(F)cc1OCc1nnn(CC(F)(F)F)n1 | 0 | 0.01
34 | COC[C@H](Nc1cncc(-n2nc(C)cc2C)n1)c1ccc(C)o1 | -16 | 2.05
35 | CCC(=O)Nc1ccc(N2CCN(C(=O)Nc3cccc(C)c3)CC2)c(C(=O)NCc2ccc(F)cc2)c1 | 1 | -0.08
36 | COc1ccc(C(=O)Cn2cnc3c2c(=O)n(C2CC2)c(=O)n3-c2ccccc2C)cc1 | 6 | -0.74
37 | Cc1cnn(CC(=O)N2CCO[C@H](c3nccs3)C2)c1 | -5 | 0.73
38 | CC12CCC(C(=O)Nc3cccc4ncccc34)(C(=O)C1=O)C2(C)C (centres undefined) | -1 | 0.08
39 | CN1CC2(C[C@H]1C(=O)N1CCOCC1)CN(Cc1ccccc1)C2 | -7 | 0.8
40 | Cc1n[nH]c(C(=O)N2CCCCCC2)c1Br | 3 | -0.33
41 | CC(=O)NC1CCC(NCC2(c3ccc(F)cc3Cl)CC2)CC1 (centres undefined) | -9 | 1.41
42 | CC(C)C1=N[C@@H](Cc2ccccc2)C(=O)Nc2ccccc21 | -3 | 0.58

Row | Compound | % Inhibition [%] | Z score
43 | CCCn1nccc1C(=O)N1CCC[C@@]2(CCN(C)C2)C1 | 1 | -0.09
44 | C=CCNc1nc(-c2ccc(O)c(OC)c2)cs1 | -21 | 1.84
45 | CCCc1ccc(S(=O)(=O)N2CCc3[nH]cnc3C2)cc1 | -15 | 1.8
46 | Cc1ccnc(NS(=O)(=O)c2ccc(NC(=O)CS(=O)(=O)c3ccccc3)cc2)n1 | -1 | 0.08
47 | COCCC(C)(C)NC(=O)[C@H](C)c1ccccc1 | -4 | 0.71
48 | Fc1ccc(-c2cccc(-n3cnnc3)c2)c(Cl)c1 | 1 | -0.14
49 | O=C(CN1N=C(c2nc(-c3ccccc3)no2)CCC1=O)N1CCN(c2ncccn2)CC1 | 3 | -0.4
50 | COc1cc(F)ccc1N(C)S(=O)(=O)N(C)C | 1 | -0.12
51 | Cc1cc(OCCN2CCOCC2)c(C)c2c1CC[C@@H]([C@H](C)C(=O)N1CCOCC1)C2 | 5 | -0.78
52 | N#Cc1ccc(OC2CCN(C(=O)c3cccc4c3CCC4)CC2)cc1 | -1 | 0.15
53 | CC1(C)CC(NC(=O)Cc2ccc(Cl)cc2Cl)CC(C)(CNC(=O)Cc2ccc(Cl)cc2Cl)C1 (centres undefined) | -35 | 4.08
54 | CCN1CCN(CCC(=O)N[C@H](C#N)C2CCCCC2)CC1 | -8 | 0.64
55 | Cc1cccc([C@@H](CC(=O)NC2CC2)c2cn(Cc3ccc(F)cc3)c3ccccc23)c1 | -1 | 0.14
56 | CCS(=O)(=O)c1c[nH]c(=O)c(C(=O)N2CCCc3ccccc32)c1 | 6 | -0.8
57 | CC(=O)N1CCC(CC(=O)Nc2nc(C)c(C)s2)(N2Cc3ccccc3C2=O)CC1 | 1 | -0.13
58 | Cc1ccc(NC(=O)N[C@H]2CCN(C(=O)C3CCCCC3)C2)c(C)c1 | -4 | 0.69
59 | O=c1cc(-c2ccccc2)nc(-n2[nH]c(-c3ccccc3)cc2=O)[nH]1 | -9 | 1.33
60 | Cn1cccc1-c1nnc(C2(c3cccc(Cl)c3)CCOCC2)o1 | 0 | 0.03
61 | O=C(CCOCC(F)(F)C(F)F)N1CC2CCCCC2C1 (centres undefined) | -8 | 0.7
62 | COc1ccc(/C=C/CN2CCC[C@@H]2CCO)cc1 | -9 | 1.43
63 | Cc1ccc(CNC(=O)C[C@H](C)Cc2nnc3c(=O)n(-c4cccc(F)c4)ccn23)cc1 | -8 | 1.18

Row | Compound | % Inhibition [%] | Z score
64 | Cc1ccc([C@@H](C#N)N2CCC(C)CC2)o1 | -1 | 0.12
65 | CC(=O)N[C@@H](C(=O)NCc1ccc(Cl)cc1)C(=O)Nc1ccc(C(C)C)cc1 | 4 | -0.57
66 | Cn1cccc1C(=O)N1CCOc2ccc(N3CCOCC3)cc2C1 | 4 | -0.77
67 | C#CCOc1ccc(N(C)CCCC(=O)NC(=O)NC)cc1 | -9 | 1.18
68 | CC[C@H](C)CNC(=O)c1n[nH]c2c1CN(C(=O)c1ccc3c(c1)OCO3)CC2 | -8 | 1.21
69 | COc1nn(C)cc1C(=O)N1CCN(CC(=O)c2ccco2)CC1 | -12 | 2.29
70 | O[C@H](COc1ccc(F)cc1)Cn1ccnc1-c1cccnc1 | -4 | 0.38
71 | O=C(c1ccccc1)N1CCN(Cc2ccc(-n3ccnc3)cc2)CC1 | -3 | 0.33
72 | COc1cccc([C@H](CN2CCN(S(=O)(=O)c3ccc(C)c(F)c3)CC2)OCc2cccc(Cl)c2)c1 | 0 | 0.05
73 | Cc1nsc(NCCN2CC3CCC(C2)O3)c1C#N | -5 | 0.8
74 | COc1ccc2c(c1)c(=O)ncn2C[C@@H](O)c1ccccc1 | -6 | 0.74
75 | CCCc1ncncc1-c1nc(C2CC2)nn1CCC | 6 | -0.91
76 | O=C(c1ccc2ccccc2n1)N1CCC2(CC1)C[C@@H](Cc1cccc(F)c1)CCO2 | -4 | 0.56
77 | O=C(c1ccc2[nH]cnc2c1)N1CCN(c2cc3c(nn2)CCCC3)CC1 | -21 | 3.56
78 | CCN(CCCN1CCCC1)c1nccc(C)n1 | -13 | 1.88
79 | CC(C)n1nc2c(S(=O)(=O)N3CCCCC3)cccn2c1=O | 1 | -0.13
80 | O=C(N[C@H]1CCN(c2ccc(C(F)(F)F)cn2)C1)c1ccc(Cl)c(Cl)c1 | -5 | 1
81 | CC(=O)c1ccc(S(=O)(=O)N2CCC3(CC2)N=C(c2ccccc2)C(=O)N3)cc1 | -16 | 2.12
82 | COCc1cc(N[C@@H](Cc2ccc(O)cc2)C(N)=O)ncn1 | -5 | 0.91
